System: PD-1^+ Jurkat T cells co-cultured with H596 (PD-L1^+) cells
Experiment: 1st screen 1b: rescue of PD-L1/PD-1 dependent exhaustion of PD-1+ Jurkat T cells in co-culture (IL-2 ELISA)
Type: cell-based, human
Conditions: 20 μM TVA; co-cultured H596, H460 lung cancer cells or A375 melanoma cells

Row | Compound | PD-L1/PD-1-dependent exhaustion of Jurkat T cells, assessed by IL-2 production
1 | CCCCCC/C=C/CCCCCCCCCC(=O)O [TVA, trans-vaccenic acid] | rescued PD-L1/PD-1-dependent exhaustion

Same assay, conditions: 1st screen 1b (Table 4): rescue of PD-L1/PD-1 dependent exhaustion of PD-1 expressing Jurkat T cells co-cultured with PD-L1-expressing H596 cells

Row | Compound | Relative changed percentage (%)
2 | CC[C@H](C)[C@@H]1NC(=O)[C@H](Cc2ccc(O)cc2)NC(=O)[C@@H](N)CSSC[C@@H](C(=O)N2CCC[C@H]2C(=O)N[C@@H](CC(C)C)C(=O)NCC(N)=O)NC(=O)[C@H](CC(N)=O)NC(=O)[C@H](CCC(N)=O)NC1=O [OXYTOCIN] | −68.75
3 | CC(C)CCCC(C)CCCC(C)CCCC(C)CC(=O)O (stereo not drawn) [PHYTANIC ACID] | −12.92
4 | [Br-].[K+] [POTASSIUM BROMIDE] | 30.33
5 | [Cl-].[K+] [POTASSIUM CHLORIDE/potassium, POTASSIUM CHLORIDE] | −43.64
6 | CC(=O)O[C@H]1CC[C@@]2(C)C(=CC[C@H]3[C@@H]4CC[C@H](C(C)=O)[C@@]4(C)CC[C@@H]32)C1 [PREGNENOLONE ACETATE/pregnenolone] | −76.95
7 | c1ncc2[nH]cnc2n1 [PURINE] | −47.53
8 | Cc1ncc(CO)c(CO)c1O [PYRIDOXINE] | −33.18
9 | c1cncnc1 [PYRIMIDINE] | −7.98
10 | CC(=O)C(=O)O [PYRUVIC ACID] | 13.11
11 | CCCCCCCCCCCCCCCC(=O)O [Palmitic Acid] | −86.34
12 | CCCCCC/C=C\CCCCCCCC(=O)O [Palmitoleic acid] | −82.7
13 | O=C([O-])CC(O)(CC(=O)[O-])C(=O)[O-].[K+].[K+].[K+] [Potassium Citrate] | −17.95
14 | O=C([O-])[C@H](O)[C@@H](O)[C@H](O)[C@H](O)CO.[K+] [Potassium Gluconate] | −41.51
15 | O=P([O-])([O-])O.[K+].[K+] [Potassium Phosphate Dibasic] | −4.5
16 | COc1cc(/C=C/c2ccc(O)cc2)cc(OC)c1 [Pterostibene] | −66.85
17 | Cc1ncc(CO)c(C=O)c1O.Cl [Pyridoxal Hydrochloride] | 42.34
18 | Cc1ncc(CO)c(CO)c1O.Cl [Pyridoxine Hydrochloride] | 96.19
19 | O=c1c(O)c(-c2ccc(O)c(O)c2)oc2cc(O)cc(O)c12 [Quercetin] | −55.67
20 | Oc1ccc(C=Cc2cc(O)cc(O)c2)cc1 [Resveratrol] | −46.18
21 | C[C@@H]1O[C@@H](OC[C@H]2O[C@@H](Oc3c(-c4ccc(O)c(O)c4)oc4cc(O)cc(O)c4c3=O)[C@H](O)[C@@H](O)[C@@H]2O)[C@H](O)[C@H](O)[C@H]1O [Rutoside trihydrate] | −33.86
22 | [Br-].[Na+] [SODIUM BROMIDE] | −24.92
23 | [Cl-].[Na+] [SODIUM CHLORIDE] | 38.77
24 | CCCCCCCCCCCCC/C=C/[C@@H](O)[C@H](COP(=O)([O-])OCC[N+](C)(C)C)NC(=O)CCCCCCCCCCCCCCC [SPHINGOMYELIN/SM(d18:1/16:0)] | −49.66
25 | OC[C@H]1O[C@@](CO)(O[C@H]2O[C@H](CO)[C@@H](O)[C@H](O)[C@H]2O)[C@@H](O)[C@@H]1O [SUCROSE] | −13.14
26 | [F-].[Na+] [Sodium Fluoride] | 9.588

Row | Compound | Relative changed percentage (%)
27 | [Na+].[Na+].[O]=[Mo](=[O])([O-])[O-] [Sodium Molybdate] | −25.53
28 | O=C([O-])CC(O)(CC(=O)[O-])C(=O)[O-].[Na+].[Na+].[Na+] [Sodium citrate] | −60.77
29 | CCCCCCCCCCCCCCCCCC(=O)O [Stearic Acid] | −85.81
30 | CC/C=C\C/C=C\C/C=C\C/C=C\CCCCC(=O)O [Stearidonic Acid] | 22.77
31 | Cn1cnc2c1c(=O)[nH]c(=O)n2C [THEOBROMINE] | 211.6
32 | Cc1ncc(C[n+]2csc(CCO[P@](=O)(O)OP(=O)(O)O)c2C)c(N)n1 [THIAMINE PYROPHOSPHATE] | −9.507
33 | Cc1cn([C@H]2C[C@H](O)[C@@H](CO)O2)c(=O)[nH]c1=O [THYMIDINE] | 162.2
34 | [Cl][Sn][Cl] [TIN(II) CHLORIDE/Tin, TIN(II) CHLORIDE] | 66.3
35 | CC1=CC(=O)C(C(C)C)=CC1=O [Thymoquinone] | −82.31
36 | C[N+](C)(C)CC(=O)[O-] [Trimethylglycine] | −55.82
37 | O=c1cc[nH]c(=O)[nH]1 [URACIL] | −26.98
38 | NC(N)=O [UREA] | −16.84
39 | O=c1[nH]c(=O)c2[nH]c(=O)[nH]c2[nH]1 [URIC ACID] | −20.63
40 | COc1c(O)c(C)c(C/C=C(\C)CC/C=C(\C)CC/C=C(\C)CC/C=C(\C)CC/C=C(\C)CC/C=C(\C)CC/C=C(\C)CC/C=C(\C)CC/C=C(\C)CCC=C(C)C)c(O)c1OC [Ubiquinol] | −52.05
41 | CC1=C(C/C=C(\C)CCC[C@H](C)CCC[C@H](C)CCCC(C)C)C(=O)c2ccccc2C1=O [VITAMIN K1] | −3.136
42 | [Cl-].[Cl-].[Zn+2] [ZINC CHLORIDE] | −51.17
43 | CC1=C(/C=C/C(C)=C/C=C/C(C)=C/C=C/C=C(C)/C=C/C=C(C)/C=C/C2=C(C)C[C@@H](O)CC2(C)C)C(C)(C)C[C@H](O)C1 [Zcaxanthin] | 14.04
44 | O=C([O-])CC(O)(CC(=O)[O-])C(=O)[O-].O=C([O-])CC(O)(CC(=O)[O-])C(=O)[O-].[Zn+2].[Zn+2].[Zn+2] [Zinc Citrate] | 9.378
45 | [O]=[Zn] [Zinc Oxide] | −16.87
46 | CC1=C(/C=C/C(C)=C/C=C/C(C)=C/C=C/C=C(C)/C=C/C=C(C)/C=C/C2=C(C)CCCC2(C)C)C(C)(C)CCC1 [all trans B carotene] | −3.188
47 | O=C(O)CCCCC1CCSS1 (stereo not drawn) [alpha-lipoic acid] | 20.02
48 | O=C(O)CCCC[C@@H]1SC[C@@H]2NC(=O)N[C@@H]21 [d-Biotin] | 5.045
49 | CCCCC/C=C\C/C=C\CCCCCCCC(=O)O [linoleic acid] | −73.48
50 | [Cl-].[Cl-].[Sr+2] [strontium chloride] | −23.15
51 | O=C(O)[C@@H]1C[C@@H](O)CN1 [trans-4-Hydroxy-L-proline] | 31.9

Row | Compound | Relative changed percentage (%)
52 | ALPHA 1 ANTITRYPSIN, HUMAN PLASMA | −5.419
53 | ARG8-VASOPRESSIN ACETATE SALT | −5.419
54 | Alpha-Tocopherol [(+/−)-A-TOCOPHEROL/Alpha-Tocopherol] | −56.14
55 | Bilirubin Mixed Isomers | 98.65
56 | Bromelain from pineapple stem | 23.01
57 | C-PEPTIDE FRAGMENT 3-33, HUMAN [C-PEPTIDE FRAGMENT 3-33, HUMAN/C-peptide] | −56.9
58 | Chromium picolinate | 24.01
59 | Collagen type II | −25.47
60 | Copper Gluconate | 7.218
61 | D-(+)-MALTOSE MONOHYDRATE | 63.15
62 | D-Glycerate 2,3-diphosphate sodium salt | 92.25
63 | Eicosatrienoic Acid | −33.55
64 | FERRITIN TYPE IV FROM HUMAN LIVER | 146.7316
65 | Gelatin | 1.989
66 | Iron Gluconate | 33.44
67 | L-A-PHOSPHATIDYLCHOLINE TYPE XVI-E | 36.39
68 | L-A-PHOSPHATIDYLETHANOLAMINE TYPE I | −49.98
69 | LEPTIN | −6.601
70 | Magnesium citrate | 2.333
71 | PROINSULIN C-PEPTIDE (55-89) [PROINSULIN C-PEPTIDE (55-89)/c-peptide] | −5.534
72 | SULFUR/sulfide | −39.76
73 | Sphingomyelin | −6.342
74 | THYROCALCITONIN SALMON/calcitonin | 39.43
75 | VASOACTIVE INTESTINAL PEPTIDE | −38.68
76 | Zinc Picolinate | −14.86

Same assay, conditions: 1st screen 1b (Table 4): rescue of PD-L1/PD-1 dependent exhaustion of PD-1 expressing Jurkat T cells co-cultured with PD-L1-expressing H596 cells; hemicalcium salt

Row | Compound | Relative changed percentage (%)
77 | D-Pantothenic Acid, hemicalcium salt | 67.41

Same assay, conditions: 1st screen 1b (Table 4): rescue of PD-L1/PD-1 dependent exhaustion of PD-1 expressing Jurkat T cells co-cultured with PD-L1-expressing H596 cells; listed as D-PANTOTHENIC ACID HEMICALCIUM, hemicalcium salt

Row | Compound | Relative changed percentage (%)
78 | D-Pantothenic Acid, hemicalcium salt | −48.47
